Test results: the supplement of paper PMC7826260
The other results are listed elsewhere or left out. One pool of 16,384 single-stranded DNAs met each Rep nickase domain in vitro (3 µM enzyme, 1 h, 37 °C); shown is the middle of each 90-letter strand. Numbers give uncut DNA relative to the enzyme-free pool, as log2; uncut sequences lie near 0, cut ones below; no hit call is given. The scaling is to total reads, so uncut sequences can rise above 0 when many others are cut.

Key:
Assay in all cases: uncleaved DNA left, log2 of reads against the no-enzyme library (log2 ratio); higher = less cleavage (more negative = more Rep cleavage of the k-mer); sequences stand for … in CTCGTCCG…ACCGGAGA
[1] = system: T1, Rep nickase domain of Muscovy duck circovirus
T1 sequence (Rep 1-111, printed without the tag): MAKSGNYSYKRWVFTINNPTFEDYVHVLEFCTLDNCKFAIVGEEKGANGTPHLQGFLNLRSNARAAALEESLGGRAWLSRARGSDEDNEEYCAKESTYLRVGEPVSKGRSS
Procedure: (§1)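 A pool of 90-nt single-stranded DNAs with seven random bases just before the constant AC of the nick site (name = the seven bases) was cut by 3 µM recombinant His6-SUMO-tagged Rep nickase domain (300 nM DNA, 50 mM HEPES pH 8.0, 50 mM NaCl, 1 mM MnCl2, 1 h, 37 °C, three replicates). Uncut DNA was amplified and sequenced.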

[2] = system: T2, Rep nickase domain of banana bunchy top virus
T2 sequence (Rep 1-94, printed without the tag): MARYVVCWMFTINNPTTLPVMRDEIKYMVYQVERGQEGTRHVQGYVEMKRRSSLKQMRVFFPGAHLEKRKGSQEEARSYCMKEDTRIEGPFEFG
Procedure: as §1

[3] = system: T3, Rep nickase domain of cabbage leaf curl virus
T3 sequence (Rep 1-116, printed without the tag): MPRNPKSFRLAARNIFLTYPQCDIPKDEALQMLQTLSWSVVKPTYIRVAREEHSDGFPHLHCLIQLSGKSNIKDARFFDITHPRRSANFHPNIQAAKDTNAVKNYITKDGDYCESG
Procedure: as §1

[4] = system: T4, Rep nickase domain of chickpea chlorotic dwarf virus
T4 sequence (Rep 1-124, printed without the tag): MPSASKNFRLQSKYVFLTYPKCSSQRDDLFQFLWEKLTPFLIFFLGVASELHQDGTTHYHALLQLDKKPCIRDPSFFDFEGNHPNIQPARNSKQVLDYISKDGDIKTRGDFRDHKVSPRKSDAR
Procedure: as §1

[5] = system: T5, Rep nickase domain of faba bean necrotic yellows virus
T5 sequence (Rep 1-98, printed without the tag): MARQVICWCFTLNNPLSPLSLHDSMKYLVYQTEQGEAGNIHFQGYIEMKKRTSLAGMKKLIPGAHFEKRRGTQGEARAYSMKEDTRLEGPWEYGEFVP
Procedure: as §1

[6] = system: T6, Rep nickase domain of maize striate mosaic virus
T6 sequence (Rep 1-117, printed without the tag): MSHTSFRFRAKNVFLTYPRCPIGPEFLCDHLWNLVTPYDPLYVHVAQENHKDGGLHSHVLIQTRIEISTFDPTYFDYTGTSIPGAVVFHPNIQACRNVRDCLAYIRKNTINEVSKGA
Procedure: as §1

[7] = system: T7, Rep nickase domain of porcine circovirus 2
T7 sequence (Rep 2-116, printed without the tag): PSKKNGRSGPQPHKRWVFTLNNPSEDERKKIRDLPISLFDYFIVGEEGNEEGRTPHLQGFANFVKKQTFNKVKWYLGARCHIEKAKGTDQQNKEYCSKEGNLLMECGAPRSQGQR
Procedure: as §1

[8] = system: T8, Rep nickase domain of tomato yellow leaf curl virus
T8 sequence (Rep 1-136, printed without the tag): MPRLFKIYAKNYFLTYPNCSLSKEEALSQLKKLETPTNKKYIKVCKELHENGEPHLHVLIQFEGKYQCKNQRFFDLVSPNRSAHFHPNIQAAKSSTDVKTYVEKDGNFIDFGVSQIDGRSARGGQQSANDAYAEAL
Procedure: as §1

[9] = system: T9, Rep nickase domain of wheat dwarf virus
T9 sequence (Rep 1-137, printed without the tag): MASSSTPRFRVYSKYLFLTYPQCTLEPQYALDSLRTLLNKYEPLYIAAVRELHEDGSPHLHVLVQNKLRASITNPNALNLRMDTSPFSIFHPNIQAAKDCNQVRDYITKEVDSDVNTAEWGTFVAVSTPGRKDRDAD
Procedure: as §1

Row | Sequence | uncleaved DNA left (log2) [1] | uncleaved DNA left (log2) [2] | uncleaved DNA left (log2) [3] | uncleaved DNA left (log2) [4] | uncleaved DNA left (log2) [5] | uncleaved DNA left (log2) [6] | uncleaved DNA left (log2) [7] | uncleaved DNA left (log2) [8] | uncleaved DNA left (log2) [9]
1 | AACAACA | 0.094 | 0.00147 | -0.25 | -2.51 | 0.102 | -0.832 | -0.0546 | -0.0999 | -0.0111
2 | TAGGTGG | -0.0182 | 0.0167 | 0.0141 | 0.0946 | -0.015 | -0.363 | 0.14 | -0.0269 | -0.0119
3 | ATGAACT | -0.0396 | -0.0141 | -0.153 | -2.2 | 0.02 | -0.241 | -0.475 | -0.0949 | -0.0349
4 | TTGCAAG | -0.0528 | -0.136 | -0.83 | -0.0808 | 0.0334 | -0.991 | 0.0351 | 0.0391 | -0.205
5 | TAGGGTC | 0.0648 | 0.0392 | 0.431 | 0.753 | 0.0177 | 1.48 | 0.0857 | 0.0889 | 0.047
6 | TCAAGGG | -0.0719 | -0.0349 | 0.00944 | 0.264 | -0.109 | -0.396 | 0.0597 | 0.00816 | -0.0255
7 | ATAGATC | 0.107 | -0.0014 | 0.0285 | 0.188 | 0.0741 | -0.315 | 0.151 | -0.0786 | 0.0738
8 | CGCAGTC | -0.106 | -0.0313 | -0.0156 | -0.109 | -0.112 | -0.47 | 0.0706 | 0.0133 | -0.199
9 | CTGGTAC | 0.0973 | 0.0474 | 0.113 | 0.0274 | 0.0471 | 0.0617 | -0.105 | 0.0971 | 0.0253
10 | GCAGCCG | -0.0408 | -0.0188 | -0.966 | -0.357 | -0.0705 | -0.916 | 0.0682 | -0.024 | -0.105
11 | CACTCAG | 0.0383 | 0.000143 | -0.693 | -0.453 | 0.0235 | -1.13 | 0.0318 | -0.00791 | -0.0271
12 | TACAGCA | -0.0123 | 0.00804 | -0.502 | -2.05 | 0.0607 | -1.02 | -0.427 | 0.00674 | -0.0205
13 | GCGGCCG | -0.00514 | -0.0401 | -0.534 | -0.372 | 0.0772 | -0.468 | 0.0626 | -0.114 | -0.0931
14 | GGCTACT | -0.515 | 0.0796 | 0.345 | 0.477 | -0.00194 | 1.86 | -2.5 | 0.18 | 0.067
15 | GAACGCG | -0.00283 | -0.0225 | -0.855 | -0.417 | 0.0858 | -0.861 | 0.142 | -0.0443 | -0.0812
16 | TGAACCA | -0.114 | 0.0284 | 0.176 | -0.855 | -0.0293 | 0.161 | -0.4 | -0.0337 | 0.103
17 | CAGCCTA | -0.0337 | 0.0167 | -0.219 | -2.39 | 0.00263 | -0.375 | -0.706 | -0.0322 | 0.0264
18 | TGGAGGC | 0.0904 | 0.0854 | 0.352 | 0.772 | 0.0256 | 0.574 | 0.197 | 0.0341 | 0.0552
19 | CGTTAAC | -0.0666 | -0.0552 | -0.25 | -1.28 | -0.189 | -0.365 | 0.02 | -0.0162 | -0.0513
20 | CTGATTC | -0.00805 | -0.137 | -0.0652 | -0.0999 | 0.0169 | -0.691 | -0.012 | 0.0701 | -0.156
21 | AAGTAAG | -0.00294 | -0.0561 | -0.799 | -0.652 | 0.0576 | -1.04 | 0.0404 | 0.0475 | -0.0701
22 | GGGGCTT | 0.0185 | 0.0467 | 0.865 | 1.93 | 0.0348 | 2.25 | 0.203 | -0.152 | 0.0506
23 | GACCGTT | -0.0718 | 0.045 | 0.154 | -0.316 | -0.0295 | 0.548 | -0.651 | 0.0148 | -0.0117
24 | GGTTGAC | -0.0447 | 0.116 | 0.844 | 1.9 | -0.0368 | 2.2 | 0.317 | 0.135 | 0.17
25 | AACTCAT | -0.467 | -0.22 | -0.0919 | -1.94 | 0.0715 | -0.27 | -3.53 | 0.00314 | 0.064
26 | TTCTAGC | 0.198 | 0.0719 | -0.084 | -0.395 | 0.116 | -0.924 | 0.361 | 0.0908 | 0.0616
27 | CTCACGG | -0.0111 | -0.00976 | 0.459 | 1.52 | -0.0387 | 1.8 | 0.0947 | -0.0553 | 0.00449
28 | GCCACAA | -0.0545 | -0.00977 | 0.0835 | 0.46 | -0.138 | 0.164 | -0.0709 | -0.0919 | 0.0153
29 | CGATGAT | -0.184 | -0.00332 | 0.149 | 0.392 | -0.078 | 0.923 | -0.907 | -0.0663 | -0.0919
30 | AGTTAGC | 0.0916 | -0.0247 | -0.285 | -0.499 | -0.0563 | -1.19 | 0.0268 | -0.0792 | -0.0732
